Whole data set: some 33,000 sequences, median “E-score (-0.5 to 0.5)” near -0.012, cut for the highest 2% near 0.27. Some of the results follow.
target: T1, Vhr1 (UniProt P40522); experiment: PBM E-score (8-mer binding enrichment) (E-score (-0.5 to 0.5)); higher = stronger / more preferred TF binding; most listed sequences are background and not binding sites; conditions: protein concentration: 200 nM; construct: GST-full length
T1 sequence: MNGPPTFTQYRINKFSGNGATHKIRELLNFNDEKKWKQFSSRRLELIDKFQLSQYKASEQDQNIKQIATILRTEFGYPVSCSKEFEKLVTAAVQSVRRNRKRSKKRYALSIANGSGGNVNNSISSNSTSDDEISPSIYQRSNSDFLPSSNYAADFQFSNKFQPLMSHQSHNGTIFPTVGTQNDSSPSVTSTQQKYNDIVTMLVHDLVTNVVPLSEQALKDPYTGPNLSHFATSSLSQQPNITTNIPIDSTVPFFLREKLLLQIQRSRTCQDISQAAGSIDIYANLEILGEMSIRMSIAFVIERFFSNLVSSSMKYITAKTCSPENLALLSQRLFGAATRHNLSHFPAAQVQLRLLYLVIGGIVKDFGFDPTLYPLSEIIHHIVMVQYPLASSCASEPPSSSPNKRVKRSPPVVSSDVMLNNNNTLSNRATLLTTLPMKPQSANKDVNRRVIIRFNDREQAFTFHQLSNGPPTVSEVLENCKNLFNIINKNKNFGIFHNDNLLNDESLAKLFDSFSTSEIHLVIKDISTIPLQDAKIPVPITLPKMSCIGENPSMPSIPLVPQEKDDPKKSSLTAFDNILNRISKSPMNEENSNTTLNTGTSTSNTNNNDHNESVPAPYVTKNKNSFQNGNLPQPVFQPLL
How it was run: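 Universal all-10-mer Agilent arrays, double-stranded by primer extension on fresh or once-stripped slides, were probed with about 100-200 nM GST-tagged yeast transcription factors made by PURExpress. Fluorescent anti-GST detected bound protein, and masliner normalised the scans. E-scores from the Universal PBM Analysis Suite were given to each ungapped eight-base word pooled with its reverse complement.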

Row | Sequence | PBM E-score
1 | TGTTAAAA | -0.239
2 | CCTGAAGC | -0.167
3 | CTCAGGTA | 0.089
4 | ACGGCTCC | -0.0297
5 | ATTAATAC | 0.22
6 | ACAACGAC | 0.254
7 | GAGGCCTC | -0.162
8 | CCTAGGCA | -0.148
9 | ACGTTAGC | 0.0427
10 | ATGTACTG | 0.0855
11 | CAGTAAAC | 0.0383
12 | CGGCTGAG | 0.217
13 | CTCCCGAG | -0.00471
14 | CGAGTGCA | -0.00982
15 | AGCTTATC | 0.0364
16 | GCGGTGGA | 0.0748
17 | AGGCGGAT | -0.00314
18 | CCTTACTC | 0.22
19 | ATTGCGAC | 0.263
20 | CACTTCTC | -0.0137
21 | GGTGAGCA | 0.173
22 | CATAGCAA | 0.00383

Row | Sequence | PBM E-score
23 | CTCGTAAG | 0.0866
24 | GCATGTAC | -0.0959
25 | ATAGCAGA | 0.0476
26 | AAGCCGCA | -0.0375
27 | AGCCAAGC | -0.0896
28 | GCTCTCAA | -0.0323
29 | GATTCCCC | 0.0301
30 | AACTGTTG | 0.0056
31 | GAAGTCGA | -0.0123
32 | ATGGTTTG | 0.165
33 | GAAAGGCC | -0.108
34 | GGGAACCA | 0.176
35 | CTGGTACA | 0.0626
36 | GGGGACTA | -0.06
37 | CAAAACAG | 0.108
38 | CTAGATAC | 0.0175
39 | AATCGGAG | 0.156
40 | CAAGACAA | -0.087
41 | AAAACTAT | -0.0485
42 | AGTAAAGA | -0.0274
43 | AATTTATC | 0.191
44 | ACCTGGAC | 0.0512

Row | Sequence | PBM E-score
45 | GAACACCC | -0.0929
46 | GCGACAGA | 0.0471
47 | AGGTAAAA | -0.215
48 | TTGTACAA | -0.266
49 | GCAGCTGA | -0.0605
50 | AATCTTTG | -0.219
51 | CTACAAAA | 0.0722
52 | TGCTCCCA | -0.106
53 | GGGTGCCA | -0.00054
54 | CTAGGTCC | -0.0836
55 | AGCCACCG | 0.148
56 | AAGACCAG | 0.0245
57 | AACTACGC | 0.0352
58 | GTCCACAC | 0.045
59 | GATATATC | 0.0354
60 | ACTGAGTA | 0.263
61 | CTGGAATA | 0.157
62 | AACAGGCA | -0.169
63 | GTCACCCA | 0.311
64 | CTTACACA | -0.051
65 | CGTTTAGA | -0.209
66 | GAGCGCCA | -0.161

Row | Sequence | PBM E-score
67 | GTAGCAAC | -0.101
68 | CACGTTGG | 0.0111
69 | ACGGCGCG | 0.107
70 | ACTCCATA | 0.264
71 | ATAGCCGC | -0.0372
72 | CGTCGACC | -0.00578
73 | CACCGCAG | -0.00862
74 | ACAGCAAA | 0.014
75 | CGTGGAAA | 0.139
76 | AGAGCATA | -0.144
77 | CGCAGCAC | 0.0469
78 | AATATGGG | 0.124
79 | CTTGCTCA | -0.075
80 | ACATACAT | 0.252
81 | GCCGGAAC | 0.049
82 | ACATTTCA | -0.0562
83 | ATAGTTCA | -0.136
84 | AATCCCGA | 0.195
85 | ATAATGCA | 0.0456
86 | ACACCCGG | 0.159

Source: the supplement of paper PMC3334620
